The RNAGym collection of RNA variant scans (doi:10.1093/nar/gkz1192)
Read counts are not given, so values of variants with three or more changes are uncertain.

B1: CPEB3 Ribozyme (parent)
chain: UAACAGGGGGCCACAGCAGAAGCGUUCACGUCGCAGCCCCUGUCAGAUUCUGGUGAAUCUGCGAAUUCUGCUGUAUAUCUC

Variants of: B1
Assay: self-cleavage, relative activity (ratio to wild type); higher = more cleavage; in vitro, sequencing
How it was run: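 Relative activity compares each variant's cleaved/total read fraction with that of the unmutated ribozyme. To get these fractions, barcoded CPEB3 ribozyme libraries from rounds of error-prone PCR were transcribed with T7 RNA polymerase for 5 hours at 37°C and then given 15 min of DNase I treatment before EDTA was added. The RNAs were reverse transcribed with template switching and sequenced on Illumina, and DNA sequencing linked barcodes to variants. A minimum of 5 reads applied, and three batches were averaged.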
G10A A15G A21G U26A U41C U74C U78C gave a self-cleavage of 0.19.
C11G U41C A56G U74C showed a self-cleavage of 0.89.
With G10A A20G A28G A56G U58C A64U the self-cleavage was 0.04.
G10A A15U U31A A45G showed a self-cleavage of 0.04.
In the case of G10A A13U U76A U80C, the self-cleavage is reported as 0.1.
With G10C C38A A45U U51C U80C the self-cleavage was 0.17.
Variant G9U U26C G33A A35C A77G has a self-cleavage of 0.05.
G10A A21G A64G gave a self-cleavage of 0.06.
With G9U A20U A56G U69C the self-cleavage was 0.05.
With G10U A15U G22U the self-cleavage was 0.2.
G10U C17G A77G showed a self-cleavage of 0.11.
In the case of G9C U25C U49A A56U, the self-cleavage is reported as 0.2.
With G10A A13U U67A the self-cleavage was 0.43.
C11G A28G A35U U66C gave a self-cleavage of 0.04.
For G10A U26G A35C U41C, the self-cleavage was 0.17.
Work on C11G A13U U26G U72A yielded a self-cleavage of 0.07.
C11A A35U U54A U80C gave a self-cleavage of 0.38.
C11A U41A U66C showed a self-cleavage of 0.06.
Work on C11G A35G A45G U74A yielded a self-cleavage of 0.33.
With C11G U25C C29U A57G U78C the self-cleavage was 0.07.
In the case of C11G C59A A64U A65G, the self-cleavage is reported as 0.02.
G10A C29A A47G U78C U80C gave a self-cleavage of 0.11.
For C11A A15G G16A A65G, the self-cleavage was 0.21.
With G10C A28G A47G U60C U66C the self-cleavage was 0.14.
C11G A15G C38A U43A U69C showed a self-cleavage of 0.01.
G9U G53A U69A gave a self-cleavage of 0.06.
In the case of G10U A15G U66A A77G U80A, the self-cleavage is reported as 0.04.
Work on G10C U25C C34U yielded a self-cleavage of 0.1.
Work on C11G A15G U49A yielded a self-cleavage of 0.33.
Variant C11G A15G U49C has a self-cleavage of 0.13.
For G10A A28U G30A U78C, the self-cleavage was 0.15.
Variant C11A A35G A45U G53A has a self-cleavage of 0.49.
G10A A15G A35G C39U U43C U60C U69A gave a self-cleavage of 0.05.
In the case of G10A A28G U51A A56G U66A U72A U76C, the self-cleavage is reported as 0.03.
Work on G10A A57G U72A yielded a self-cleavage of 0.1.
G9C U51C A56G G61A showed a self-cleavage of 0.16.
Variant C11G A28C A47G has a self-cleavage of 0.1.
G10C C50U A65G gave a self-cleavage of 0.06.
C11A U66C U74C A75U U80C gave a self-cleavage of 0.1.
With C11G U25C U54C U72C U74C the self-cleavage was 0.06.
In the case of G10A U60C U80C, the self-cleavage is reported as 0.2.
With C11G A13G A28C A35C U41A U69C U74C the self-cleavage was 0.04.
C11G A21G A28G U54C gave a self-cleavage of 0.33.
For C11G A20G U41C G53A U67A, the self-cleavage was 0.18.
Work on C11G A18U U31A U41A U67A A75G U76A yielded a self-cleavage of 0.01.
Work on C11G G53A A57G yielded a self-cleavage of 0.53.
With G10C A13G U41A C62A the self-cleavage was 0.07.
In the case of G10C U54A A64G, the self-cleavage is reported as 0.15.
G9U A13U A57U showed a self-cleavage of 0.17.
With C11G C23G U25C the self-cleavage was 0.08.
G10A C11U A45U A47G U69A showed a self-cleavage of 0.04.
For C11G U26C A45G U72C, the self-cleavage was 0.07.
Work on C11A U26C C34U yielded a self-cleavage of 0.07.
G10A A45U A56U A65G gave a self-cleavage of 0.12.
With G9U C32A A56G C62U U74C the self-cleavage was 0.14.
Variant C11G C32A A45G A57G U67C U80C has a self-cleavage of 0.1.
For G10A C34A U41A A57G U67A U72G, the self-cleavage was 0.02.
G9U C23U U26C U66A U74A showed a self-cleavage of 0.09.
G9U A35U U41C showed a self-cleavage of 0.41.
C11G A15G G36A U60C gave a self-cleavage of 0.08.
For G10A A20U U25C U31C U60A, the self-cleavage was 0.14.
Work on G9U G16U A45U U66C U67A C68U U80C yielded a self-cleavage of 0.05.
With C11G A15G A56G the self-cleavage was 0.19.
G9U U48C A65U U69A A75U gave a self-cleavage of 0.04.
In the case of G10A A35G A64G U69C U72A, the self-cleavage is reported as 0.07.
Variant C11A C14A U67C A75U has a self-cleavage of 0.09.
C11G U25C U31C A35U A45G U51C showed a self-cleavage of 0.04.
In the case of C11A A13G U67C G70C U80A C81U, the self-cleavage is reported as 0.05.
With G9U A20G A28G U54A U69A the self-cleavage was 0.04.
G10A U48C U72A gave a self-cleavage of 0.18.
Work on G9U C27U U72C U74C yielded a self-cleavage of 0.21.
For G9U U31A U72C U80C, the self-cleavage was 0.06.
With G9U A45G U51A G55A A64G U80C the self-cleavage was 0.04.
With G10A A28G U41A A64G U67C the self-cleavage was 0.13.
G9U A15U C23U showed a self-cleavage of 0.31.
With G9C U41G U48C U66C the self-cleavage was 0.04.
Variant G9U U49C U67C has a self-cleavage of 0.31.
With C11G A21G U25C U49C the self-cleavage was 0.21.
G10C C12A A13G U54C U67C gave a self-cleavage of 0.2.
Work on C11G A45U A56G U58C A64U yielded a self-cleavage of 0.04.
With G10C A18G A20G G52A the self-cleavage was 0.28.
Work on G9U C27U U76A yielded a self-cleavage of 0.18.
In the case of C11G U41A C62U, the self-cleavage is reported as 0.07.
In the case of C11G A35U U43C, the self-cleavage is reported as 0.1.
G9U A13G U60C G61C U72A gave a self-cleavage of 0.05.
For G9U A28U C32A, the self-cleavage was 0.26.
In the case of G9U C11U U26C C34G U78C, the self-cleavage is reported as 0.05.
For C11G A13G U41A U51C A57G U66A, the self-cleavage was 0.08.
Variant G10A U67C U69C has a self-cleavage of 0.09.
For G10A G46A G53A A57G, the self-cleavage was 0.05.
In the case of C11G U41A A64G U66C U80C, the self-cleavage is reported as 0.04.
In the case of G10A U26C U43A U72G, the self-cleavage is reported as 0.31.
Variant C11A C32U U41A U58A C62A has a self-cleavage of 0.04.
With G10A A13U A18U A21G C40A U43A the self-cleavage was 0.06.
Variant G10C A18G A28U A75G has a self-cleavage of 0.38.
G10A A18U U25G U43C C44U A64U gave a self-cleavage of 0.25.
With G10C A15G C17G A20G A65G A75U the self-cleavage was 0.36.
G9C U43C U60A G63A A64G gave a self-cleavage of 0.06.
G10A U43A U60A showed a self-cleavage of 0.29.
With C11A C50U U69C U72C U76C the self-cleavage was 0.06.
With G10A C12A U41C C50A U54C U66C the self-cleavage was 0.22.
Variant C11G C14A U25A G30A C34G U43C U51A has a self-cleavage of 0.05.
G10A U25C C59A U67C showed a self-cleavage of 0.06.
G10A A18G U80C showed a self-cleavage of 0.47.
With C11G C37A A65G U76C the self-cleavage was 0.05.
G10A A13G A57G U60C U80C gave a self-cleavage of 0.06.
For C11A A21U A65G U66A, the self-cleavage was 0.22.
C11A A28G U72G showed a self-cleavage of 0.04.
Work on G10A G42A U43C yielded a self-cleavage of 0.27.
G10A U48C A56G gave a self-cleavage of 0.06.
Variant G10U A35G U43C U58C G61A has a self-cleavage of 0.06.
Variant G10A C29U A45G A47U A56C has a self-cleavage of 0.09.
In the case of G10A A20G U31A U48C U54C, the self-cleavage is reported as 0.15.
In the case of G10C U26C U51A U69C, the self-cleavage is reported as 0.08.
In the case of G9U A20G A45G U80C, the self-cleavage is reported as 0.03.
For G9U A45G A47U U67C, the self-cleavage was 0.11.
C11A C40A C62G showed a self-cleavage of 0.05.
Work on C11A U25C A35U U41A U80A yielded a self-cleavage of 0.26.
Variant C11G A65U U72C has a self-cleavage of 0.44.
Variant G10A U41C A64U A65U U72C has a self-cleavage of 0.09.
For G10C U31G A47G U60C A75G, the self-cleavage was 0.05.
For G10A U25C U26C U76C, the self-cleavage was 0.06.
G10A U26C U69C showed a self-cleavage of 0.06.
With C11G G19A A64U U72A the self-cleavage was 0.04.
For G10A U54A U60C, the self-cleavage was 0.26.
G10U A18G A45U A56U A65G showed a self-cleavage of 0.04.
C11G G30U A65G U72A gave a self-cleavage of 0.1.
With C11A A28C U51A U58A U76C the self-cleavage was 0.04.
With G10A A35G U60G A64G the self-cleavage was 0.31.
G9U C37U U48C gave a self-cleavage of 0.13.
For G10A A20G U69C, the self-cleavage was 0.07.
Variant G9U A15G A18G U26A A28G U66C has a self-cleavage of 0.07.
With C11A A64G U76A the self-cleavage was 0.13.
In the case of G9U A20G A35U A56U U78A, the self-cleavage is reported as 0.06.
In the case of C11G A18U C32U U80G, the self-cleavage is reported as 0.07.
With G10U A13U A45G U67C the self-cleavage was 0.34.
Variant C11A A20C A28U U31C A47U has a self-cleavage of 0.05.
For G10C U49C U80A, the self-cleavage was 0.12.
G10C A20U G53A gave a self-cleavage of 0.11.
C11G A20G U54A A77G gave a self-cleavage of 0.08.
Variant C11A U26A A56G has a self-cleavage of 0.42.
In the case of C11G C12U A21G U41G U43C C71A, the self-cleavage is reported as 0.03.
With G10C U49A U72A the self-cleavage was 0.24.
G9U G63U U76C gave a self-cleavage of 0.25.
In the case of G10A A20U A28G U31A A65G, the self-cleavage is reported as 0.07.
For C11A U25A U31A A35G U43A U60C U80C, the self-cleavage was 0.05.
In the case of G10A A13U U41C U58C, the self-cleavage is reported as 0.09.
G9U U41A U49C U51C U67C gave a self-cleavage of 0.06.
With G10A A20G U41C U49C A57G A64U the self-cleavage was 0.05.
C11G U26C A35G A47G U51C gave a self-cleavage of 1.07.
Variant G10C G22A U31C G33A C62U U72C A75G has a self-cleavage of 0.05.
For C11A U54A A56G U78C, the self-cleavage was 0.27.
C11A A18G A57G showed a self-cleavage of 0.32.
G9U A47G A77U gave a self-cleavage of 0.1.
Variant C11A A28G C37G U43C C59A U80A has a self-cleavage of 0.03.
For C11G A28C A45U, the self-cleavage was 0.09.
With G10A A45G U54C U72C the self-cleavage was 0.08.
For G9U A47G A56U U69C, the self-cleavage was 0.31.
Work on C11A A28G U67C yielded a self-cleavage of 0.16.
In the case of G10A A21G U78A, the self-cleavage is reported as 0.24.
In the case of C11A A45U A57G, the self-cleavage is reported as 0.27.
Variant G10A C14U U51A U54A has a self-cleavage of 0.07.
In the case of G10A C29A U41G U72C, the self-cleavage is reported as 0.18.
In the case of C11A U31A A47G U54A U67C U69A, the self-cleavage is reported as 0.05.
Variant G10A A65U U69C U74C has a self-cleavage of 0.09.
In the case of C11G A35G U41A U78A, the self-cleavage is reported as 0.05.
G10U A15G U31C C59A U72C showed a self-cleavage of 0.05.
